Data taken from PubChem BioAssay AID1461 (National Center for Advancing Translational Sciences (NCATS), 2008).
Screen size: about 220,000 compounds; about 2,300 (1%) were called active. Inconclusive results, whose numbers are uncertain, are shown with a selection of clear calls. Calls come from the whole dose curve; as a rule, active = well fitted inhibition curve with a large enough effect; inconclusive = small, poorly fitted or top-dose-only effect, or effect the other way; inactive = no such curve, though single readings can be large or run the other way. No potency is given beside an inconclusive call; the fits are too rough.

Biological target: Neuropeptide S receptor (Homo sapiens) (UniProt Q6W5P4)
UniProt Q6W5P4, sequence (Q6W5P4 whole entry, looked up): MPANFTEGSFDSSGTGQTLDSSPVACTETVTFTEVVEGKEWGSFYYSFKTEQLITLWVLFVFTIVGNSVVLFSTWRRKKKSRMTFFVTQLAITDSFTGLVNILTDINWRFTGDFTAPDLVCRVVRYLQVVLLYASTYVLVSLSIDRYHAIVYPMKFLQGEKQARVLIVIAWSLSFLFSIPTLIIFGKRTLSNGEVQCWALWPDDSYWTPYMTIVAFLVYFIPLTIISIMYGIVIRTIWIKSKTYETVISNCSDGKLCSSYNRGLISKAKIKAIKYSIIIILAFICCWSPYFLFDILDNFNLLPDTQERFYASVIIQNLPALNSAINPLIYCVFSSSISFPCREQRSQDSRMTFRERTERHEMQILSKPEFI
Experiment: qHTS Assay for Antagonists of the Neuropeptide S Receptor: cAMP Signal Transduction; note: nearly all actives have a fitted effect of over 50% in size
Settings: CHO-NPSR cells, cAMP TR-FRET, antagonist mode; activity change, negative = inhibition: at 38.3 µM (top of the series) unless noted
% is set by controls: 0 for no effect and ±100 for the full control effect; potency is the fitted concentration of half-maximal effect; tags give direction and shape of the fitted curve.

Structure (SMILES) | Potency | activity change, negative = inhibition
CCc1cc(C(=O)c2ccc(OC)cc2)c(NC(=O)CCC(=O)O)s1 | inconclusive [activator, partial curve] | 
Cc1nc2ccccc2c(=O)n1/N=C/c1ccco1 |  | inactive: 6.4%
CCOC(=O)/C(C#N)=C\C=C1C=CN(C)C=C1 | active: 12.6 µM | 
COc1ccc(S(=O)(=O)Nc2ccc(N3CCOCC3)cc2)cc1Br |  | inactive: -12.7% [at 46.1 µM]
CCC(C)(C)n1nnnc1C(c1cc2cc(OC)ccc2[nH]c1=O)N1CCc2ccccc21 (stereo not given) | inconclusive [inhibitor, partial curve] | 
c1ccc(Cc2nnc3sc(-c4ccc5c(c4)OCCO5)nn23)cc1 |  | inactive: -16.1% [at 46.1 µM]
Cc1cc(Oc2ccccc2)nc(SCC(=O)Nc2ccc(Cl)cc2Cl)n1 | inconclusive [inhibitor, single point] | 
CCC1c2ccc(C)n2CCN1C(=O)Nc1ccccc1C(=O)OC (stereo not given) | inconclusive [inhibitor, partial curve, poor fit] | 
CN(C)/C=N/c1c(C#N)cnn1-c1ncnc2sc(-c3ccccc3)cc12 | inconclusive [inhibitor, partial curve] | 
CCOC(=O)CCCSc1nc(-c2ccc3c(c2)OCO3)cc(C(F)(F)F)c1C#N | inconclusive [inhibitor, single point] | 
COc1cc(-c2nc(-c3ccccc3)c(-c3cccs3)[nH]2)cc(OC)c1OC | inconclusive [inhibitor, partial curve, poor fit] | 
COc1ccc(OCc2nnc(SCC(=O)N3CCCc4ccccc43)n2-c2ccc(C)cc2)cc1 | inconclusive [inhibitor, single point] | 
COc1ccc(NC(=O)CCC2CCCC2)cc1OC | inconclusive [inhibitor, partial curve, poor fit] | 
CCCOc1ccc(C2C(C(=O)c3ccco3)=C(O)C(=O)N2CCN2CCOCC2)cc1OC (stereo not given) |  | inactive: -4.94% [at 46.1 µM]
O=C(Nc1ccc(C(F)(F)F)cc1Cl)c1ccc(Cn2cc(Br)cn2)o1 | inconclusive [inhibitor, partial curve, poor fit] | 
CC1CCC(C(C)C)C(OC(=O)CSc2nccc(=O)[nH]2)C1 (stereo not given) |  | inactive: -7.96% [at 46.1 µM]
CCC(=O)N1CCN(c2ccc(NC(=O)c3cc4ccccc4o3)cc2Cl)CC1 | inconclusive [inhibitor, single point] | 
O=C(CN1CCCC1)Nc1c2c(cc3c1CCC3)CCC2 |  | inactive: 18.7%
COC(=O)C1=C(C)N(CCCC(=O)O)C(=O)NC1c1cc2c(cc1[N+](=O)[O-])OCO2 (stereo not given) |  | inactive: -3.55%
Cc1cc(NC(=O)CSc2nc(C3CCCCC3)nc3ccccc23)no1 | inconclusive [inhibitor, partial curve] | 
CC1=C(C(=O)OC2CCCC2)C(c2coc3ccccc3c2=O)C2=C(CC(C)(C)CC2=O)N1 (stereo not given) | inconclusive [activator, single point] | 
CSc1ccc(C(=O)C2CCCN(C(=O)c3ccsc3)C2)cc1 (stereo not given) |  | inactive: -25.5%
CSCCOC(=O)c1[nH]c2c(c1C)C(=O)CC(c1ccco1)C2 (stereo not given) | inconclusive [activator, partial curve] | 

Structure (SMILES) | Potency | activity change, negative = inhibition
COc1cccc(-c2nn(C)c3sc(C(=O)N4CCN(c5ccccn5)CC4)cc23)c1 | inconclusive [inhibitor, single point] | 
O=C1OC(Nc2cc(Br)cc3cccnc23)c2ccccc21 (stereo not given) |  | inactive: 2.91%
Cc1ccc(NC(=O)COC(=O)Cc2csc(-c3cccc(F)c3)n2)cc1C |  | inactive: 0.101%
COC(=O)NC(NC(=S)Nc1ccccc1OC)C(Cl)(Cl)Cl (stereo not given) | inconclusive [inhibitor, single point] | 
O=C(Nc1ccccc1)N1CCCN(c2ccc(C(F)(F)F)cc2[N+](=O)[O-])CC1 | inconclusive [activator, single point] | 
Cc1cc[n+](C2=C([O-])c3ccccc3C(=O)/C2=N\S(=O)(=O)c2cccs2)cc1C |  | inactive: -1.45%
CN(C)c1ccc(NC2=C(Cl)C(=O)c3ccccc3C2=O)cc1 | inconclusive [inhibitor, single point] | 
COc1ccccc1Nc1ccc(Nc2ccccc2OC)nn1 |  | inactive: -19.8% [at 46.1 µM]
CCOc1cc(/C=C2\C(=O)N(Cc3ccc(C)cc3)C(C)=C2C(=O)OC)ccc1O | inconclusive [inhibitor, single point] | 
COc1cc(C(=O)Oc2ccc3c(c2)OCC3=O)cc(OC)c1OC |  | inactive: -0.869% [at 46.1 µM]
Cc1ccc(C)c2[nH]c(=O)c(C(c3nnnn3Cc3ccco3)N3CCc4ccccc4C3)cc12 (stereo not given) |  | inactive: -15.3% [at 46.1 µM]
CN(C)C(=O)N1CCC(C(=O)NCc2ccccc2)CC1 | inconclusive [inhibitor, single point] | 
COc1cc(/C=C2/C(=O)NN(c3cccc(C)c3)C2=O)ccc1OC(=O)c1ccco1 | inconclusive [inhibitor, single point] | 
O=C(C1CCCO1)N1N=C(c2ccc(Br)cc2)CC1c1ccco1 (stereo not given) |  | inactive: -2.52%
O=C1CCc2cc(OCCCCc3nnnn3C3CCCCC3)ccc2N1 | inconclusive [inhibitor, single point] | 
COc1cccc(Nc2nc(N)c([N+](=O)[O-])c(NCc3ccccc3)n2)c1 | inconclusive [inhibitor, single point] | 
N#Cc1cnn(-c2ccccc2)c1NC(=O)CN1CCN(c2ccccc2)CC1 |  | inactive: 3.2%
Cc1onc(-c2c(Cl)cccc2Cl)c1C(=O)NC(=S)N1CCOCC1 | inconclusive [activator, single point] | 
CCCCCc1cc(=O)oc2c(C(CCN3CCCCC3)c3ccc4c(c3)OCO4)c(OC)cc(OC)c12 (stereo not given) | inconclusive [inhibitor, single point] | 
Cc1ccc(N2C(=N)/C(=C3/Nc4ccccc4S3)C(c3ccccc3)C2=O)cc1 (stereo not given) | inconclusive [inhibitor, partial curve] | 
O=C(CSCc1c(F)cccc1Cl)NCc1ccncc1 |  | inactive: 6.82%
Cc1sc(NC(=O)/C=C/c2ccco2)c(C(=O)OC(C)C)c1C | inconclusive [inhibitor, full curve, poor fit] | 
